Measurements: the supplement of paper PMC11628255, “Interference of metal ions on the bioluminescent signal of firefly, Renilla, and NanoLuc luciferases in high-throughput screening assays” (Frontiers in Chemistry, 2024)
This continues a long series; more values of the same kind are listed elsewhere.

Columns and labels:
Test in all cases: normalised percent inhibition of luminescence (vs positive and negative controls); higher = stronger inhibition
[1] = system: firefly luciferase (FLuc); conditions: screening conditions buffer
Method: (§1)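 Concentration-response (>=11 concentrations) of metal salts on purified FLuc, NLuc or RLuc luminescence in screening (SC) or 100 mM HEPES (H) buffer; salt pre-incubated with enzyme 10 min at RT, read 10 min after substrate. Normalised percent inhibition vs plate positive (PTC-124, isradipine, BTS) and DMSO negative controls; triplicate wells.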

[2] = system: Renilla luciferase (RLuc)
Method: as §1

[3] = system: NanoLuc luciferase (NLuc)
Method: as §1

O=[N+]([O-])[O-].O=[N+]([O-])[O-].[Cu+2] [copper(II) nitrate]
[1]
Conditions | normalised percent inhibition [%]
metal salt concentration 0.002 mM | 15.6
metal salt concentration 0.005 mM | 13.8
metal salt concentration 0.01 mM | 26
metal salt concentration 0.02 mM | 24.1
metal salt concentration 0.05 mM | 16.2
metal salt concentration 0.1 mM | 31.6
metal salt concentration 0.2 mM | 98.3
metal salt concentration 0.5 mM | 100.6
metal salt concentration 1 mM | 100.6
metal salt concentration 2.5 mM | 100.7
metal salt concentration 5 mM | 100.9

[2], 100 mM HEPES buffer
Conditions | normalised percent inhibition [%]
metal salt concentration 1 mM | 107
metal salt concentration 2.5 mM | 107
metal salt concentration 5 mM | 106

O=[N+]([O-])[O-].[Ag+] [silver nitrate]
normalised percent inhibition [%], [3]
Conditions | metal salt concentration 0.0001 mM | metal salt concentration 0.00025 mM | metal salt concentration 0.0005 mM | metal salt concentration 0.001 mM | metal salt concentration 0.01 mM | metal salt concentration 0.02 mM | metal salt concentration 0.04 mM
100 mM HEPES buffer | – | – | – | – | -0.536 | -2.95 | -5.96
screening conditions buffer | -0.166 | 3 | 1.61 | 2.52 | – | – | 102

[1]
Conditions | normalised percent inhibition [%]
metal salt concentration 0.1 mM | 100.9
metal salt concentration 0.2 mM | 100.6
metal salt concentration 0.5 mM | 100.7
metal salt concentration 1 mM | 100.7
metal salt concentration 2.5 mM | 100.93
metal salt concentration 5 mM | 100.5

O=[N+]([O-])[O-].O=[N+]([O-])[O-].O=[N+]([O-])[O-].[Ga+3] [gallium(III) nitrate]
normalised percent inhibition [%]
Conditions | [2] | [3]
metal salt concentration 0.0001 mM, 100 mM HEPES buffer | -45.6 | 0.704
metal salt concentration 0.00025 mM, 100 mM HEPES buffer | -52 | -0.623
metal salt concentration 0.0005 mM, 100 mM HEPES buffer | -52.7 | -1.16
metal salt concentration 0.000625 mM, screening conditions buffer | 9.82 | 0.95
metal salt concentration 0.001 mM, 100 mM HEPES buffer | -72.7 | -2.73
metal salt concentration 0.00125 mM, screening conditions buffer | 5.38 | -4.95
metal salt concentration 0.025 mM, 100 mM HEPES buffer | -44.1 | -1.97
metal salt concentration 0.03125 mM, screening conditions buffer | 0.0744 | -2.02
metal salt concentration 0.05 mM, 100 mM HEPES buffer | -42.1 | 0.437
metal salt concentration 0.0625 mM, screening conditions buffer | -9.13 | 3.88
metal salt concentration 0.1 mM, 100 mM HEPES buffer | -9.12 | 0.526
metal salt concentration 0.125 mM, screening conditions buffer | 2.67 | 1.49
metal salt concentration 0.5 mM, 100 mM HEPES buffer | 27.9 | 3.88
metal salt concentration 0.625 mM, screening conditions buffer | -12.6 | 12.1
metal salt concentration 1 mM, 100 mM HEPES buffer | 83.8 | 11.4
metal salt concentration 1.25 mM, screening conditions buffer | 0.399 | 11.8
metal salt concentration 2.5 mM, 100 mM HEPES buffer | 96.6 | 61.7
metal salt concentration 5 mM, 100 mM HEPES buffer | 105 | 92
metal salt concentration 7.5 mM, screening conditions buffer | 92.2 | 105.5
metal salt concentration 15 mM, screening conditions buffer | 106.7 | 105.8

[1]
Conditions | normalised percent inhibition [%]
metal salt concentration 0.002 mM | -2.69
metal salt concentration 0.005 mM | 37
metal salt concentration 0.01 mM | 50.1
metal salt concentration 0.02 mM | 99.3
metal salt concentration 0.05 mM | 85.2
metal salt concentration 0.1 mM | 97.6
metal salt concentration 0.2 mM | 100.2
metal salt concentration 0.5 mM | 100.5
metal salt concentration 1 mM | 100.4
metal salt concentration 2.5 mM | 100.7
metal salt concentration 5 mM | 100.1

O=[N+]([O-])[O-].O=[N+]([O-])[O-].[Pb+2] [lead(II) nitrate]
normalised percent inhibition [%], 100 mM HEPES buffer
Conditions | [2] | [3]
metal salt concentration 0.0001 mM | -54.8 | 0.467
metal salt concentration 0.00025 mM | -83.6 | 1.23
metal salt concentration 0.0005 mM | -40.9 | 1.85
metal salt concentration 0.000625 mM | -8.09 | –
metal salt concentration 0.001 mM | -62.2 | 1.09
metal salt concentration 0.00125 mM | 0.57 | –
metal salt concentration 0.025 mM | -44.8 | 0.341
metal salt concentration 0.03125 mM | 7.41 | –
metal salt concentration 0.05 mM | -31.5 | -1.3
metal salt concentration 0.0625 mM | 20.2 | –
metal salt concentration 0.1 mM | -33.8 | 2.71
metal salt concentration 0.125 mM | 4.22 | –
metal salt concentration 0.5 mM | 55.1 | 42.8
metal salt concentration 0.625 mM | 71.7 | –
metal salt concentration 1 mM | 61.9 | 78.5
metal salt concentration 1.25 mM | 73 | –
metal salt concentration 2.5 mM | 71.3 | 92.15
metal salt concentration 5 mM | 72.1 | 94.75
metal salt concentration 10 mM | 101 | –
metal salt concentration 20 mM | 108 | –

[1]
Conditions | normalised percent inhibition [%]
metal salt concentration 0.002 mM | -2.87
metal salt concentration 0.005 mM | -1.41
metal salt concentration 0.01 mM | 4.91
metal salt concentration 0.02 mM | 18.4
metal salt concentration 0.05 mM | 16.3
metal salt concentration 0.1 mM | 20.2
metal salt concentration 0.2 mM | 15.8
metal salt concentration 0.5 mM | 13.7
metal salt concentration 1 mM | 92.8
metal salt concentration 2.5 mM | 99.3
metal salt concentration 5 mM | 99.7

O=[N+]([O-])[O-].O=[N+]([O-])[O-].[Zn+2] [zinc nitrate]
normalised percent inhibition [%]
Conditions | [2] | [3]
metal salt concentration 0.0001 mM, 100 mM HEPES buffer | -31.2 | 5.22
metal salt concentration 0.00025 mM, 100 mM HEPES buffer | -43.5 | -3.82
metal salt concentration 0.0005 mM, 100 mM HEPES buffer | -52.2 | 4.57
metal salt concentration 0.0005 mM, screening conditions buffer | -0.0338 | -1.22
metal salt concentration 0.001 mM, 100 mM HEPES buffer | -48.7 | 2.29
metal salt concentration 0.001 mM, screening conditions buffer | 4.3 | 3.62
metal salt concentration 0.025 mM, 100 mM HEPES buffer | -29.3 | 12.8
metal salt concentration 0.025 mM, screening conditions buffer | -1.98 | 9.18
metal salt concentration 0.05 mM, 100 mM HEPES buffer | -19.3 | 35.8
metal salt concentration 0.1 mM, 100 mM HEPES buffer | -10.8 | 47
metal salt concentration 0.5 mM, 100 mM HEPES buffer | 82.9 | 64.7
metal salt concentration 1 mM, 100 mM HEPES buffer | 97.4 | 77.1
metal salt concentration 2.5 mM, 100 mM HEPES buffer | 103 | 85
metal salt concentration 5 mM, 100 mM HEPES buffer | 106 | 87
metal salt concentration 10 mM, 100 mM HEPES buffer | – | 89.1
metal salt concentration 10 mM, screening conditions buffer | 106.7 | 101.8
metal salt concentration 20 mM, 100 mM HEPES buffer | – | 94.98
metal salt concentration 20 mM, screening conditions buffer | 106.2 | 104.2

O=[N+]([O-])[O-].O=[N+]([O-])[O-].[Cd+2] [cadmium nitrate]
[1]
Conditions | normalised percent inhibition [%]
metal salt concentration 0.002 mM | -9.3
metal salt concentration 0.005 mM | -6.36
metal salt concentration 0.01 mM | -10.6
metal salt concentration 0.02 mM | -4.86
metal salt concentration 0.05 mM | -7.32
metal salt concentration 0.1 mM | -4.76
metal salt concentration 0.2 mM | -1.48
metal salt concentration 0.5 mM | 20.6
metal salt concentration 1 mM | 100.5
metal salt concentration 2.5 mM | 100.93
metal salt concentration 5 mM | 100.9
